Data reported in publication PMC5805785, “Site-specific phosphorylation of TRANSPARENT TESTA GLABRA1 mediates carbon partitioning in Arabidopsis seeds” (Nature Communications, 2018).
These are yes or no findings as the source states them, for the method shown. For some of these results: Binding seen in cells or lysates may run through a third protein. Some binding calls cover weakened binding; strength is not graded here. For some of these results: Sequences can lack the tags named with a protein. Blank lines part the entries; values can stand above or below the binder they belong to.

How the values were obtained:
[1] = target: T1, TTG1 fused to cYFP (Arabidopsis thaliana) (UniProt Q9XGN1); experiment: split reporter; BiFC: cYFP and nYFP fusions co-expressed in Nicotiana benthamiana leaf epidermal cells by Agrobacterium infiltration, confocal microscopy 2 days after infiltration
T1 sequence: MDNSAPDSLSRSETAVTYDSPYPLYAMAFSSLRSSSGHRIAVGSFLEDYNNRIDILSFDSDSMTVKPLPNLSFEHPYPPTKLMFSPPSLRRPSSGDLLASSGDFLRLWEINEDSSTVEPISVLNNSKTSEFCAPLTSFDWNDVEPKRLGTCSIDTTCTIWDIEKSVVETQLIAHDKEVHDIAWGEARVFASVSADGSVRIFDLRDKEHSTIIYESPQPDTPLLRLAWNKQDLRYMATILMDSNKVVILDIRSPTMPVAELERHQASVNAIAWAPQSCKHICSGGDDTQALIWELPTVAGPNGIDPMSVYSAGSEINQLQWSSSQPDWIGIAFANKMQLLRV

[2] = target: T2, TTG1 in pGBKT7 (Arabidopsis thaliana) (UniProt Q9XGN1); experiment: two-hybrid; yeast two-hybrid, pGADT7 and pGBKT7 fusions; growth on SD-Trp/-Leu/-His with 0.3 mM 3AT, ten-fold serial dilutions
T2 sequence: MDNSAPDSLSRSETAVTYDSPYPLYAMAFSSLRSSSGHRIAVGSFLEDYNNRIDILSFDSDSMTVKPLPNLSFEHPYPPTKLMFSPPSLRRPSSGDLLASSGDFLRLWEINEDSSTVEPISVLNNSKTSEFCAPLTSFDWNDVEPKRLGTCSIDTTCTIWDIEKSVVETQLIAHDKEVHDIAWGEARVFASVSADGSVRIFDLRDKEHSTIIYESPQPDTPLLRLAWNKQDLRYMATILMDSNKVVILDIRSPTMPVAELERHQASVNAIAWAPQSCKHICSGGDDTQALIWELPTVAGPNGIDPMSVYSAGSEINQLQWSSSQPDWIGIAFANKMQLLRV

[3] = target: T3, 4HA-TTG1 (Arabidopsis thaliana) (UniProt Q9XGN1); experiment: co-IP; total protein extracts of transgenic Arabidopsis siliques 4 days after pollination; anti-HA agarose beads, 4 °C, 2 h; 50 mM Tris-HCl pH 7.5, 150 mM NaCl, 1 mM EDTA, 5% glycerol, 0.5% Triton X-100; blot with anti-GFP and anti-HA
T3 sequence: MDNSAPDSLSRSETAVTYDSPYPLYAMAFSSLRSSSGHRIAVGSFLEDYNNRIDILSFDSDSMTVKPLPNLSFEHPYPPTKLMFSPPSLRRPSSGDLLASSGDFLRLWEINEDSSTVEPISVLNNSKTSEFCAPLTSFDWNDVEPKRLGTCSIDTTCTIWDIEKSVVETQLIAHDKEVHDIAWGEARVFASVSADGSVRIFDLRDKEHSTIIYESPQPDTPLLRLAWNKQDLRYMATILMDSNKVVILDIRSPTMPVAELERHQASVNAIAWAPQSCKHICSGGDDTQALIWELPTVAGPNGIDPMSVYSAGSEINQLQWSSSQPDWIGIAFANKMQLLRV

[4] = target: T4, TT2 in pGBKT7 (… TESTA2) (Arabidopsis thaliana) (UniProt Q9FJA2); experiment: two-hybrid; yeast two-hybrid, pGADT7 and pGBKT7 fusions; growth on SD-Trp/-Leu/-His with 0.7 mM 3AT, ten-fold serial dilutions
T4 sequence: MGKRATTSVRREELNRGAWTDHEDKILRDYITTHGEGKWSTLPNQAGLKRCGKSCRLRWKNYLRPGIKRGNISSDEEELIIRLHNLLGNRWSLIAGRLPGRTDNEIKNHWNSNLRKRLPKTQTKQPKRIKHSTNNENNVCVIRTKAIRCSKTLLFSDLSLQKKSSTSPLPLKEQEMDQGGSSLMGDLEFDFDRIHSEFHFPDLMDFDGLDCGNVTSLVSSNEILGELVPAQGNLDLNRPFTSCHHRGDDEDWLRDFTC

[5] = target: T5, GST-SK11 (Arabidopsis thaliana) (UniProt P43288); experiment: pull-down; GST, GST-SK11 and GST-SK12 on glutathione sepharose beads as baits; MBP and MBP-TTG1 as preys (called in vitro-translated in the results), detected by immunoblot; only the target purified
T5 sequence: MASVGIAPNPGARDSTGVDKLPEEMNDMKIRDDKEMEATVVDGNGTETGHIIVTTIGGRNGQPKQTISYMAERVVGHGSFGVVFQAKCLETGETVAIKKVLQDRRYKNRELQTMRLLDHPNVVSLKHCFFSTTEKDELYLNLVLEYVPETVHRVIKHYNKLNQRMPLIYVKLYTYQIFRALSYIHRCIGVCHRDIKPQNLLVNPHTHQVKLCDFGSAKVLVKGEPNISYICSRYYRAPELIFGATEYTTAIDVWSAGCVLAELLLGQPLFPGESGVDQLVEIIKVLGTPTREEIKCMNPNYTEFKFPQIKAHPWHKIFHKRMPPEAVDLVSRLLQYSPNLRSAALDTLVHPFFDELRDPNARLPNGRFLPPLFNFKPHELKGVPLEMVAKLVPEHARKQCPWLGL

[6] = target: T6, GST-SK12 (Arabidopsis thaliana) (UniProt P43289); experiment: as above
T6 sequence: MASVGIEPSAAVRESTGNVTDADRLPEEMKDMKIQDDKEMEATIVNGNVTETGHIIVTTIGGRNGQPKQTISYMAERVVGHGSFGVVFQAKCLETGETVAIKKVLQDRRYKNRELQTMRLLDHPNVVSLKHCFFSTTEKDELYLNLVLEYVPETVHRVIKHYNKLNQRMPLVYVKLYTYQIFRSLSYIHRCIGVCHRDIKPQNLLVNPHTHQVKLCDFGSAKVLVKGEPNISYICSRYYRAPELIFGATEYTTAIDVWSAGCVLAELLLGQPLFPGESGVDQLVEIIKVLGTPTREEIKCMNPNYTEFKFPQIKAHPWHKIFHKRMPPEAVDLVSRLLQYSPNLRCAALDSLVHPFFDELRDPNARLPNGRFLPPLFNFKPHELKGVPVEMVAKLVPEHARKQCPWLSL

- binding [1]: binds
B1: SK12 fused to nYFP (enzyme, UniProt P43289 1-409)
chain: MASVGIEPSAAVRESTGNVTDADRLPEEMKDMKIQDDKEMEATIVNGNVTETGHIIVTTIGGRNGQPKQTISYMAERVVGHGSFGVVFQAKCLETGETVAIKKVLQDRRYKNRELQTMRLLDHPNVVSLKHCFFSTTEKDELYLNLVLEYVPETVHRVIKHYNKLNQRMPLVYVKLYTYQIFRSLSYIHRCIGVCHRDIKPQNLLVNPHTHQVKLCDFGSAKVLVKGEPNISYICSRYYRAPELIFGATEYTTAIDVWSAGCVLAELLLGQPLFPGESGVDQLVEIIKVLGTPTREEIKCMNPNYTEFKFPQIKAHPWHKIFHKRMPPEAVDLVSRLLQYSPNLRCAALDSLVHPFFDELRDPNARLPNGRFLPPLFNFKPHELKGVPVEMVAKLVPEHARKQCPWLSL

- binding [2]: binds
B2: SK12 in pGADT7 (enzyme, UniProt P43289 1-409)
chain: MASVGIEPSAAVRESTGNVTDADRLPEEMKDMKIQDDKEMEATIVNGNVTETGHIIVTTIGGRNGQPKQTISYMAERVVGHGSFGVVFQAKCLETGETVAIKKVLQDRRYKNRELQTMRLLDHPNVVSLKHCFFSTTEKDELYLNLVLEYVPETVHRVIKHYNKLNQRMPLVYVKLYTYQIFRSLSYIHRCIGVCHRDIKPQNLLVNPHTHQVKLCDFGSAKVLVKGEPNISYICSRYYRAPELIFGATEYTTAIDVWSAGCVLAELLLGQPLFPGESGVDQLVEIIKVLGTPTREEIKCMNPNYTEFKFPQIKAHPWHKIFHKRMPPEAVDLVSRLLQYSPNLRCAALDSLVHPFFDELRDPNARLPNGRFLPPLFNFKPHELKGVPVEMVAKLVPEHARKQCPWLSL

- binding [1]: binds
B3: SK11 fused to nYFP (enzyme, UniProt P43288 1-405)
chain: MASVGIAPNPGARDSTGVDKLPEEMNDMKIRDDKEMEATVVDGNGTETGHIIVTTIGGRNGQPKQTISYMAERVVGHGSFGVVFQAKCLETGETVAIKKVLQDRRYKNRELQTMRLLDHPNVVSLKHCFFSTTEKDELYLNLVLEYVPETVHRVIKHYNKLNQRMPLIYVKLYTYQIFRALSYIHRCIGVCHRDIKPQNLLVNPHTHQVKLCDFGSAKVLVKGEPNISYICSRYYRAPELIFGATEYTTAIDVWSAGCVLAELLLGQPLFPGESGVDQLVEIIKVLGTPTREEIKCMNPNYTEFKFPQIKAHPWHKIFHKRMPPEAVDLVSRLLQYSPNLRSAALDTLVHPFFDELRDPNARLPNGRFLPPLFNFKPHELKGVPLEMVAKLVPEHARKQCPWLGL

- binding [2]: binds
B4: SK11 in pGADT7 (enzyme, UniProt P43288 1-405)
chain: MASVGIAPNPGARDSTGVDKLPEEMNDMKIRDDKEMEATVVDGNGTETGHIIVTTIGGRNGQPKQTISYMAERVVGHGSFGVVFQAKCLETGETVAIKKVLQDRRYKNRELQTMRLLDHPNVVSLKHCFFSTTEKDELYLNLVLEYVPETVHRVIKHYNKLNQRMPLIYVKLYTYQIFRALSYIHRCIGVCHRDIKPQNLLVNPHTHQVKLCDFGSAKVLVKGEPNISYICSRYYRAPELIFGATEYTTAIDVWSAGCVLAELLLGQPLFPGESGVDQLVEIIKVLGTPTREEIKCMNPNYTEFKFPQIKAHPWHKIFHKRMPPEAVDLVSRLLQYSPNLRSAALDTLVHPFFDELRDPNARLPNGRFLPPLFNFKPHELKGVPLEMVAKLVPEHARKQCPWLGL

- binding [3]: binds
B5: SK11^E292K-GFP (enzyme, UniProt P43288 1-405)
chain: MASVGIAPNPGARDSTGVDKLPEEMNDMKIRDDKEMEATVVDGNGTETGHIIVTTIGGRNGQPKQTISYMAERVVGHGSFGVVFQAKCLETGETVAIKKVLQDRRYKNRELQTMRLLDHPNVVSLKHCFFSTTEKDELYLNLVLEYVPETVHRVIKHYNKLNQRMPLIYVKLYTYQIFRALSYIHRCIGVCHRDIKPQNLLVNPHTHQVKLCDFGSAKVLVKGEPNISYICSRYYRAPELIFGATEYTTAIDVWSAGCVLAELLLGQPLFPGESGVDQLVEIIKVLGTPTRKEIKCMNPNYTEFKFPQIKAHPWHKIFHKRMPPEAVDLVSRLLQYSPNLRSAALDTLVHPFFDELRDPNARLPNGRFLPPLFNFKPHELKGVPLEMVAKLVPEHARKQCPWLGL

- binding [4]: binds
B6: TTG1^S215A in pGADT7 (protein, UniProt Q9XGN1 1-341)
chain: MDNSAPDSLSRSETAVTYDSPYPLYAMAFSSLRSSSGHRIAVGSFLEDYNNRIDILSFDSDSMTVKPLPNLSFEHPYPPTKLMFSPPSLRRPSSGDLLASSGDFLRLWEINEDSSTVEPISVLNNSKTSEFCAPLTSFDWNDVEPKRLGTCSIDTTCTIWDIEKSVVETQLIAHDKEVHDIAWGEARVFASVSADGSVRIFDLRDKEHSTIIYEAPQPDTPLLRLAWNKQDLRYMATILMDSNKVVILDIRSPTMPVAELERHQASVNAIAWAPQSCKHICSGGDDTQALIWELPTVAGPNGIDPMSVYSAGSEINQLQWSSSQPDWIGIAFANKMQLLRV

- binding [4]: no binding
B7: TTG1^S215E in pGADT7 (protein, UniProt Q9XGN1 1-341)
chain: MDNSAPDSLSRSETAVTYDSPYPLYAMAFSSLRSSSGHRIAVGSFLEDYNNRIDILSFDSDSMTVKPLPNLSFEHPYPPTKLMFSPPSLRRPSSGDLLASSGDFLRLWEINEDSSTVEPISVLNNSKTSEFCAPLTSFDWNDVEPKRLGTCSIDTTCTIWDIEKSVVETQLIAHDKEVHDIAWGEARVFASVSADGSVRIFDLRDKEHSTIIYEEPQPDTPLLRLAWNKQDLRYMATILMDSNKVVILDIRSPTMPVAELERHQASVNAIAWAPQSCKHICSGGDDTQALIWELPTVAGPNGIDPMSVYSAGSEINQLQWSSSQPDWIGIAFANKMQLLRV

- binding [5]: binds
- binding [6]: binds
B8: MBP-TTG1 (… TESTA GLABRA1) (protein, UniProt Q9XGN1 1-341)
chain: MDNSAPDSLSRSETAVTYDSPYPLYAMAFSSLRSSSGHRIAVGSFLEDYNNRIDILSFDSDSMTVKPLPNLSFEHPYPPTKLMFSPPSLRRPSSGDLLASSGDFLRLWEINEDSSTVEPISVLNNSKTSEFCAPLTSFDWNDVEPKRLGTCSIDTTCTIWDIEKSVVETQLIAHDKEVHDIAWGEARVFASVSADGSVRIFDLRDKEHSTIIYESPQPDTPLLRLAWNKQDLRYMATILMDSNKVVILDIRSPTMPVAELERHQASVNAIAWAPQSCKHICSGGDDTQALIWELPTVAGPNGIDPMSVYSAGSEINQLQWSSSQPDWIGIAFANKMQLLRV

- binding [4]: binds
B9: TTG1 in pGADT7 (protein, UniProt Q9XGN1 1-341)
chain: MDNSAPDSLSRSETAVTYDSPYPLYAMAFSSLRSSSGHRIAVGSFLEDYNNRIDILSFDSDSMTVKPLPNLSFEHPYPPTKLMFSPPSLRRPSSGDLLASSGDFLRLWEINEDSSTVEPISVLNNSKTSEFCAPLTSFDWNDVEPKRLGTCSIDTTCTIWDIEKSVVETQLIAHDKEVHDIAWGEARVFASVSADGSVRIFDLRDKEHSTIIYESPQPDTPLLRLAWNKQDLRYMATILMDSNKVVILDIRSPTMPVAELERHQASVNAIAWAPQSCKHICSGGDDTQALIWELPTVAGPNGIDPMSVYSAGSEINQLQWSSSQPDWIGIAFANKMQLLRV
